Among all 110,000 compounds or so, about 230 (0.21%) showed an effect of 50% or more. Some of the results follow.
biological target: DPAP1 (Plasmodium falciparum, UniProt Q8IIJ9); assay: primary screen, percent inhibition; read by cleavage of a fluorogenic dipeptide substrate; higher = more effect of the substance; set-up: species or system P. falciparum D10 trophozoite lysates; single well
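Further: 30 min substrate incubation versus DMSO and 10 µM JCP410 controls.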

Sequence of DPAP1 (Q8IIJ9 whole entry, looked up): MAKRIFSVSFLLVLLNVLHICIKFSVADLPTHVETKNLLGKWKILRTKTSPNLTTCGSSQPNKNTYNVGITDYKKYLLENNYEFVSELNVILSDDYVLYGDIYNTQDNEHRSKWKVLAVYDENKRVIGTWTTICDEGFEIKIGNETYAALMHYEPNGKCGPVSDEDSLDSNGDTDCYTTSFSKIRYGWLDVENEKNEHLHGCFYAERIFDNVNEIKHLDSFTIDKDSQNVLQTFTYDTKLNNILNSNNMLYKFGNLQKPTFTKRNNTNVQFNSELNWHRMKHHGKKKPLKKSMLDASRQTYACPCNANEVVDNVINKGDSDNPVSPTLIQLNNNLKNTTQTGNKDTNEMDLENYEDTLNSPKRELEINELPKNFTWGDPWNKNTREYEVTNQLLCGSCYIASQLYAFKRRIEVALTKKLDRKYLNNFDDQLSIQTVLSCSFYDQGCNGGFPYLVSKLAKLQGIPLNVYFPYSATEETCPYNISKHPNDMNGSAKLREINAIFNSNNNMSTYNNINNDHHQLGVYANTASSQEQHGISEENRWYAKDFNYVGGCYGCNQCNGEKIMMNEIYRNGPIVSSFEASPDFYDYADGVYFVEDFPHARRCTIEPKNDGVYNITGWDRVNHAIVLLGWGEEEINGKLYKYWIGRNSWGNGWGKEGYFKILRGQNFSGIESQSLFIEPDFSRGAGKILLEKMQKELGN

Compound	% Inhibition @ 10 uM
COc1ccc(S(=O)(=O)N2CCN(c3ccccc3)CC2)cc1Br	-6.36%
Clc1nc(NCc2ccco2)nc(N2CCCCC2)n1	-3%
CC1CCN(c2c(NCc3ccc(C(=O)NCC4CCC(C(=O)O)CC4)cc3)c(=O)c2=O)CC1 (stereo not drawn)	-0.522%
NC(=O)C1CCCN(C2CCN(Cc3ccccc3)CC2)C1 (stereo not drawn)	-5.11%
O=C(NC1CCC(NC(=O)c2ccccc2Cl)CC1)c1ccccc1Cl (stereo not drawn)	-1.44%
CCOC(=O)C1=CN(C)C=C(C(=O)OCC)C1c1ccsc1	-3.23%
COc1ccc(CN2CCCC(O)C2)cc1Br (stereo not drawn)	-6.21%
CCOC1=CC(=O)N(c2ccc(C)cc2)C1	4.88%
Cc1ccc2[nH]c3c(c2c1)CCC/C3=N\O	-1.45%
CC(C)c1cc(C(=O)NCc2ccc(Cl)cc2)no1	-4.43%
Cc1cc(=O)n2nc(N3CCCC(C(=O)NCC(C)c4ccccc4)C3)sc2n1 (stereo not drawn)	-5.63%
COc1ccc(NC(=O)c2ccc(C(C)(C)C)cc2)c(C)c1	-10%
O=S(=O)(Nc1ccccc1NS(=O)(=O)c1ccc(Cl)cc1)c1ccc(Cl)cc1	-10.2%
Cc1nn(CCC(=O)N2CCC3(CC2)OCCO3)c(=O)c2nn(-c3ccccc3)c(C)c12	-10%
Fc1ccc(CN2CCN(c3ccccc3F)CC2)cc1	3.16%
CN1CCN(CC(O)COc2ccc(F)cc2)CC1 (stereo not drawn)	0.275%
O=C1C2C3C=CC(CC3)C2C(=O)N1c1cc(Cl)ccc1Cl (stereo not drawn)	1.62%
CNS(=O)(=O)c1cccs1	1.37%
O=C(/C=C/c1ccccc1)N1CCN(C2=NS(=O)(=O)c3ccccc32)CC1	-7.02%
CC(=O)c1ccc(NC(=O)CCCC(=O)O)cc1	-0.999%
COc1ccc(C)cc1NC(=O)CNS(=O)(=O)c1cc(Cl)ccc1Cl	1.43%
Fc1cccc(F)c1CN1CCc2c([nH]c3ccccc23)C1	0.472%
COc1ccc(CCn2c(C)c3c(C)nn4cc(C)cc4c3c2C)cc1OC	2.01%
CCOC(=O)c1c(NC(=O)COCc2cc(-c3ccc4c(c3)OCO4)on2)sc2c1CCCC2	0.822%
COc1nc(-c2ccccc2)c2cc(C)ccc2n1	3.65%
CC(=O)c1cccc(NC(=O)CNS(=O)(=O)c2c(C)cc(C)cc2C)c1	-2.22%

Compound	% Inhibition @ 10 uM
CCOc1ccc(N(CC(=O)N2CCOCC2)S(=O)(=O)c2ccc(SC)cc2)cc1	4.67%
COC(=O)c1ccc(/C=C/C(=O)c2cc3cc(Cl)ccc3oc2=O)cc1	4.33%
CCC(C)NC(=O)CSc1nc2nnc(C)c-2c(N)n1-c1ccccc1C (stereo not drawn)	1.2%
CC1c2c([nH]c3ccccc23)CCC1C(=O)O (stereo not drawn)	7.78%
COc1ccc2cc(-c3csc(NC(=O)CCC(=O)N4CCCC(C)C4)n3)c(=O)oc2c1 (stereo not drawn)	7.56%
CCS(=O)(=O)c1nc(S(=O)(=O)c2ccc(Cl)cc2)c(N2CCc3ccccc3C2)s1	-4.04%
Cc1cc(C)cc(OCC(=O)Nc2cc(F)ccc2F)c1	-0.63%
CSc1nn(Cc2ccc(C)cc2)c(N)c1S(=O)(=O)c1ccc(C)cc1	-2.29%
O=C1CSC2=NC3=C(CCc4ccccc43)C(c3ccc(F)cc3)N12 (stereo not drawn)	10.1%
CCOc1ccc2nc(Nc3ncc4c(n3)CC(C)(C)CC4=O)nc(C)c2c1	-1.17%
COc1ccccc1/C=C/C=N/n1cnnc1	3.06%
O=C(Nc1ccc2c(c1)OCO2)c1ccccc1	5.08%
CCCCSc1c(O)c2ccccc2n(C)c1=O	4.05%
Cc1csc(NC(=O)c2cnn(-c3ccc(F)cc3F)c2C2CCNCC2)n1	0.358%
c1cc2c(cc1CN1CCN(Cc3csc4c3CCCC4)CC1)OCO2	20%
CCn1c(SCC(=O)NCc2ccco2)nc2c(c1=O)SCC2	1.39%
COc1ccccc1C(=O)Nc1ccccc1C	-2.21%
CCOC(=O)c1sc(NC(=O)c2cc(-c3ccc4c(c3)OCO4)on2)c(C(=O)OCC)c1C	-6.45%
COc1cc(C2c3c(-c4ccccc4O)n[nH]c3C(=O)N2CCCOC(C)C)ccc1OCC(C)C (stereo not drawn)	0.366%
Cc1c(C(=O)O)cnc2cc(-c3ccccc3)nn12	2.39%
O=C(N1CCN(CCO)CC1)N1c2ccccc2CCc2ccccc21	3.18%
Brc1ccc(-c2nc(-c3ccccc3)cc(N3CCCCC3)n2)cc1	4.22%
N#Cc1c(SCc2ccccc2)nc2ccc(F)cc2c1O	-4.41%
COc1ccccc1Cn1c(COC(=O)c2cccs2)nc2ccccc21	3.54%
CCOc1cc(/C=C2\SC(=N)N(c3nonc3N)C2=O)ccc1OCCN1CCOCC1	3.81%
Cc1c(C(=O)Nc2cc(F)cc(F)c2)cnn1-c1ccccc1	-9.31%

Compound	% Inhibition @ 10 uM
Cc1ccc2c(C)nc(NC3=NCN(C4CCCC(C)C4C)CN3)nc2c1 (stereo not drawn)	3.73%
CCOC(=O)c1cc2c(n(-c3ccccc3)c1=O)CCCC2=O	2.57%
CC1(C)C=C(c2ccc(O)cc2)CC(C)(C)N1	-0.0953%
N#CC1=C(N)Oc2[nH]nc(-c3ccccc3)c2C1c1ccc(Cl)cc1 (stereo not drawn)	4.39%
C=CCN1C(=O)/C(=C\c2ccc(O)c(OC)c2)C(C(=O)OC)=C1C	9.42%
O=C(O)c1cccc(Nc2cccc(Cl)c2)c1	0.989%
COc1ccc(-c2csc3ncn(Cc4ccc(C(=O)O)cc4)c(=O)c23)cc1	12.4%
Nc1nonc1C(=O)NCCNCc1ccc(-c2ccccc2F)o1	3.27%
CC(=O)n1cc(C2C(=O)NC(=O)NC2=O)c2ccccc21	-2.42%
Cc1ccc(S(=O)(=O)c2ccc3c(c2)Sc2ccccc2N3)cc1	0.266%
COCCNC(=O)CCc1nc2cccnc2n1-c1ccccc1	-8.68%
O=C(NCc1ccco1)Nc1cnc2ccccc2c1O	-2.84%
CCc1ccc(S(=O)(=O)N=C2C=CC(=O)C=C2)cc1	7.76%
CC1=C(c2ccc(C)cc2)S(=O)(=O)N(CC(=O)N2CCN(c3ccccn3)CC2)C1=O	-3.34%
CC(=O)Nc1ccc(C(=O)Nc2ccccc2Cl)cc1	7.65%
O=C1c2ccccc2C(=O)N1CCc1nn[nH]n1	-2.19%
O=C(CNS(=O)(=O)c1ccc2c(c1)C(=O)c1ccccc1C2=O)c1ccccc1	-1.68%
COc1cc(C(=O)Nc2c(C)cccc2C)ccc1OC(F)F	0.389%
COc1cc(CNc2ccccc2)cc2c1OCO2	0.177%
COc1ccc(C(=O)N(Cc2ccco2)Cc2ccccc2Cl)cc1	1.25%
COc1ccc2nc3[nH]nc(NC(=O)Cc4ccccc4OC)c3cc2c1	-2.16%
CCOC(=O)c1c(C)[nH]c(C)c1S(=O)(=O)N1CCC(C(=O)Nc2ncccc2C)CC1	2.41%
CCCCn1c(=N)n(CC(O)c2ccc(Cl)cc2)c2ccccc21 (stereo not drawn)	3%
CCOc1ccccc1C(=O)O/N=C(\N)c1cccnc1	-2.98%
CCN1C(=O)NC(c2ccc(Cl)cc2)C(C(=O)OCCOc2ccccc2)=C1C (stereo not drawn)	8.98%
COc1ccc(S(=O)(=O)N(C)CC(=O)NC2CCCC2)cc1	5.46%

Compound	% Inhibition @ 10 uM
COc1ccc(OC)c(NC(=O)C2c3ccccc3Oc3ccccc32)c1	5.7%
O=C(NCc1ccccc1F)c1ccc(Cn2cc(Br)cn2)cc1	5.79%
CCOc1ccc(CCNC(=O)Cn2nc(C)n3c(cc4cc(F)ccc43)c2=O)cc1OCC	-1.7%
O=C(c1ccc2c(c1)OCO2)N1CCC(Cc2ccccc2)CC1	-1.54%
O=S(=O)(Nc1ccccc1O)c1ccc(Cl)cc1	-4.35%
Cc1nn(C(C)C(=O)NCCN2CCCCCC2)c(=O)c2nn(-c3ccccc3)c(C)c12 (stereo not drawn)	0.227%
CCOc1ccc2c(c1)S/C(=C/c1ccccc1O)C2=O	1.39%
Cc1[nH]c(C(=O)NCCCN2CC(C)CC(C)C2)c(C)c1C(=O)NC1CCCCC1 (stereo not drawn)	3.3%
Cc1ccc(S(=O)(=O)N(CC(=O)Nc2ccccc2F)Cc2cccc(C)c2)cc1	1.08%
Cc1ccc2cc(C)c(NCc3ccncc3)nc2c1	1.72%
CC(C)C[C@H](NC(=O)OCc1ccccc1)C(=O)N[C@@H]1CCN(C#N)C1	-5.64%
CCOCCCN(C)C1CCN(S(=O)(=O)c2csc(C(N)=O)c2)CC1	-7.09%
CC(CCN1CCN(Cc2ccccc2)CC1)c1ccccc1 (stereo not drawn)	-4.04%
CC(C)=CCCCCCCN1CCN(c2cccc(Cl)c2)CC1	-0.446%
CCCC1=Nc2ncnn2C(c2ccccc2Cl)/C1=C(/O)OCC (stereo not drawn)	0.0842%
N#C/C(=C\c1coc2ccccc2c1=O)C(=O)Nc1nc2ccccc2s1	-5.76%
Cc1nn(Cc2c(F)cccc2Cl)c(C)c1NC(=O)c1ccn(C)n1	-4.39%
CCN(CC)c1ccc(C2C3=C(O)CCCC3=NC(C)=C2C(=O)Nc2ccc(F)cc2)cc1 (stereo not drawn)	-0.941%
COc1ccc(CN2CCN(c3ccc(F)cc3)CC2)cc1	-3.77%
Cc1[nH]c2ccccc2c1CCNc1ncnc2sc(C)c(C)c12	-0.403%
CCOC(=O)Cc1c(C)nn(-c2ccccc2)c1C	0.035%
CCCc1nn(-c2ccc(F)cc2)c(O)c1/C=N/CCO	-2.77%
COc1ccc(CN(C)S(=O)(=O)c2nnc(NC(=O)C(C)(C)C)s2)cc1OC	3.25%
CCOc1ccccc1NC(=O)CN(C1CCCCC1)S(C)(=O)=O	-5.15%

Reference: PMC6919601, “Identification of Plasmodium dipeptidyl aminopeptidase allosteric inhibitors by high throughput screening” (PLoS ONE, 2019)
